# Some of the results follow.
# Tests used:
# Assay in all cases: glycan array binding signal (z-score within array); higher = stronger binding
# Details in all cases: glycan notation: IUPAC condensed, linker removed
# GalNAc(b1-3)GalNAc = biological target: GalNAc(b1-3)GalNAc
# Method in brief: (§1)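 Columns mapping to the same glycan were averaged after glycan names were converted to IUPAC-condensed notation. The data come from 3228 arrays in the Consortium for Functional Glycomics database, limited to those with an available protein sequence. Binding is reported as a within-array Z-score averaged across arrays of one protein sequence and across linkers.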
# GalNAc(b1-4)GlcNAc = biological target: GalNAc(b1-4)GlcNAc
# Method in brief: as §1
# Glc(a1-4)Glc = biological target: Glc(a1-4)Glc
# Method in brief: as §1
# Glc(a1-6)Glc(a1-6)Glc = biological target: Glc(a1-6)Glc(a1-6)Glc
# Method in brief: as §1
# Glc(b1-4)Glc = biological target: Glc(b1-4)Glc
# Method in brief: as §1
# Glc(b1-6)Glc = biological target: Glc(b1-6)Glc
# Method in brief: as §1
# GlcA(b1-3)Gal = biological target: GlcA(b1-3)Gal
# Method in brief: as §1
# GlcA(b1-3)GlcNAc = biological target: GlcA(b1-3)GlcNAc
# Method in brief: as §1
# GlcA(b1-6)Gal = biological target: GlcA(b1-6)Gal
# Method in brief: as §1
# [1] = biological target: GlcNAc(a1-3)Gal(b1-4)GlcNAc
# Method in brief: as §1
# [2] = biological target: GlcNAc(a1-6)Gal(b1-4)GlcNAc
# Method in brief: as §1
# [3] = biological target: GlcNAc(b1-2)Gal(b1-3)GalNAc
# Method in brief: as §1
# [4] = biological target: GlcNAc(b1-2)Man(a1-3)[GlcNAc(b1-2)Man(a1-6)]Man(b1-4)GlcNAc(b1-4)GlcNAc
# Method in brief: as §1
# GlcNAc(b1-3)Gal = biological target: GlcNAc(b1-3)Gal
# Method in brief: as §1
# [5] = biological target: GlcNAc(b1-3)Gal(b1-3)GalNAc
# Method in brief: as §1
# GlcNAc(b1-3)Gal(b1-4)Glc = biological target: GlcNAc(b1-3)Gal(b1-4)Glc
# Method in brief: as §1
# [6] = biological target: GlcNAc(b1-3)Gal(b1-4)GlcNAc
# Method in brief: as §1
# [7] = biological target: GlcNAc(b1-3)Gal(b1-4)GlcNAc(b1-3)Gal(b1-4)GlcNAc
# Method in brief: as §1
# GlcNAc(b1-3)GalNAc = biological target: GlcNAc(b1-3)GalNAc
# Method in brief: as §1
# GlcNAc(b1-3)Man = biological target: GlcNAc(b1-3)Man
# Method in brief: as §1
# [8] = biological target: GlcNAc(b1-3)[GlcNAc(b1-4)][GlcNAc(b1-6)]GlcNAc
# Method in brief: as §1
# [9] = biological target: GlcNAc(b1-3)[GlcNAc(b1-6)]Gal(b1-4)GlcNAc
# Method in brief: as §1
# [10] = biological target: GlcNAc(b1-3)[GlcNAc(b1-6)]GalNAc
# Method in brief: as §1
# [11] = biological target: GlcNAc(b1-4)Gal(b1-4)GlcNAc
# Method in brief: as §1
# GlcNAc(b1-4)GlcNAc = biological target: GlcNAc(b1-4)GlcNAc
# Method in brief: as §1
# [12] = biological target: GlcNAc(b1-4)GlcNAc(b1-4)GlcNAc
# Method in brief: as §1
# [13] = biological target: GlcNAc(b1-4)GlcNAc(b1-4)GlcNAc(b1-4)GlcNAc(b1-4)GlcNAc
# Method in brief: as §1
# [14] = biological target: GlcNAc(b1-4)GlcNAc(b1-4)GlcNAc(b1-4)GlcNAc(b1-4)GlcNAc(b1-4)GlcNAc
# Method in brief: as §1
# [15] = biological target: GlcNAc(b1-4)[GlcNAc(b1-6)]GalNAc
# Method in brief: as §1
# [16] = biological target: GlcNAc(b1-6)Gal(b1-4)GlcNAc
# Method in brief: as §1
# GlcNAc(b1-6)GalNAc = biological target: GlcNAc(b1-6)GalNAc
# Method in brief: as §1
# GlcNAc3Prop(b1-4)GlcNAc = biological target: GlcNAc3Prop(b1-4)GlcNAc
# Method in brief: as §1
# Kdn(a2-3)Gal(b1-3)GlcNAc = biological target: Kdn(a2-3)Gal(b1-3)GlcNAc
# Method in brief: as §1
# Kdn(a2-3)Gal(b1-4)GlcNAc = biological target: Kdn(a2-3)Gal(b1-4)GlcNAc
# Method in brief: as §1
# [17] = biological target: Man(a1-2)Man(a1-2)Man(a1-3)Man
# Method in brief: as §1
# [18] = biological target: Man(a1-2)Man(a1-2)Man(a1-6)[Man(a1-3)]Man
# Method in brief: as §1
# Man(a1-2)Man(a1-3)Man = biological target: Man(a1-2)Man(a1-3)Man
# Method in brief: as §1
# [19] = biological target: Man(a1-2)Man(a1-3)[Man(a1-2)Man(a1-6)]Man
# Method in brief: as §1
# [20] = biological target: Man(a1-2)Man(a1-3)[Man(a1-2)Man(a1-6)]Man(a1-6)[Man(a1-2)Man(a1-2)Man(a1-3)]Man
# Method in brief: as §1
# [21] = biological target: Man(a1-2)Man(a1-3)[Man(a1-2)Man(a1-6)]Man(a1-6)[Man(a1-2)Man(a1-2)Man(a1-3)]Man(b1-4)GlcNAc(b1-4)GlcNAc
# Method in brief: as §1
# [22] = biological target: Man(a1-2)Man(a1-3)[Man(a1-6)]Man(a1-6)[Man(a1-2)Man(a1-3)]Man(b1-4)GlcNAc(b1-4)GlcNAc
# Method in brief: as §1
# [23] = biological target: Man(a1-2)Man(a1-6)[Man(a1-3)]Man(a1-6)[Man(a1-2)Man(a1-2)Man(a1-3)]Man
# Method in brief: as §1
# [24] = biological target: Man(a1-2)Man(a1-6)[Man(a1-3)]Man(a1-6)[Man(a1-2)Man(a1-2)Man(a1-3)]Man(b1-4)GlcNAc(b1-4)GlcNAc
# Method in brief: as §1
# Man(a1-3)[Man(a1-6)]Man = biological target: Man(a1-3)[Man(a1-6)]Man
# Method in brief: as §1
# [25] = biological target: Man(a1-3)[Man(a1-6)]Man(a1-6)[Man(a1-2)Man(a1-3)]Man(b1-4)GlcNAc(b1-4)GlcNAc
# Method in brief: as §1
# [26] = biological target: Man(a1-3)[Man(a1-6)]Man(a1-6)[Man(a1-3)]Man
# Method in brief: as §1
# [27] = biological target: Man(a1-3)[Man(a1-6)]Man(a1-6)[Man(a1-3)]Man(b1-4)GlcNAc(b1-4)GlcNAc
# Method in brief: as §1
# [28] = biological target: Man(a1-3)[Man(a1-6)]Man(b1-4)GlcNAc(b1-4)GlcNAc
# Method in brief: as §1
# Man(a1-6)Man = biological target: Man(a1-6)Man
# Method in brief: as §1
# Man(b1-4)GlcNAc = biological target: Man(b1-4)GlcNAc
# Method in brief: as §1
# Neu5Ac(a2-3)Gal = biological target: Neu5Ac(a2-3)Gal
# Method in brief: as §1
# [29] = biological target: Neu5Ac(a2-3)Gal(b1-3)GalNAc
# Method in brief: as §1
# [30] = biological target: Neu5Ac(a2-3)Gal(b1-3)GalNAc(b1-3)Gal(a1-4)Gal(b1-4)Glc
# Method in brief: as §1
# [31] = biological target: Neu5Ac(a2-3)Gal(b1-3)GalNAc(b1-3)Gal(b1-4)GlcNAc
# Method in brief: as §1
# [32] = biological target: Neu5Ac(a2-3)Gal(b1-3)GalNAc(b1-4)[Neu5Ac(a2-3)]Gal(b1-4)Glc
# Method in brief: as §1
# [33] = biological target: Neu5Ac(a2-3)Gal(b1-3)GalNAc6S
# Method in brief: as §1
# [34] = biological target: Neu5Ac(a2-3)Gal(b1-3)GlcNAc
# Method in brief: as §1
# [35] = biological target: Neu5Ac(a2-3)Gal(b1-3)GlcNAc(b1-3)Gal(b1-3)GlcNAc
# Method in brief: as §1
# [36] = biological target: Neu5Ac(a2-3)Gal(b1-3)GlcNAc6S
# Method in brief: as §1
binder,measurement,setting,value
"LYVE-1 (Homo sapiens), Q9Y5Y7 (protein) MARCFSLVLLLTSIWTTRLLVQGSLRAEELSIQVSCRIMGITLVSKKANQQLNFTEAKEACRLLGLSLAGKDQVETALKASFETCSYGWVGDGFVVISRISPNPKCGKNGVGVLIWKVPVSRQFAAYCYNSSDTWTNSCIPEIITTKDPIFNTQTATQTTEFIVSDSTYSVASPYSTIPAPTTTPPAPASTSIPRRKKLICVTEVFMETSTMSTETEPFVENKAAFKNEAAGDPEVKFNWYVDGVEVHNAKPREEQYNSTYRVVSLVTVLHQDWLNGKEYKCKVSNKALPAPIEKTISKAKGQPREPQVYTLPPSRDELTKNQVSLTCLVKGFYPSDIAVEWESNGQPENNYKTTPPVLDSDGSFFLYSKLTVDKSRWQQGNVFSCSVMHEALHNHYTQRSLSLSPGK",glycan array binding signal (z-score),GalNAc(b1-3)GalNAc,-0.597
same,glycan array binding signal (z-score),GalNAc(b1-4)GlcNAc,-0.259
same,glycan array binding signal (z-score),Glc(a1-4)Glc,0.041
same,glycan array binding signal (z-score),Glc(a1-6)Glc(a1-6)Glc,-0.616
same,glycan array binding signal (z-score),Glc(b1-4)Glc,1.8
same,glycan array binding signal (z-score),Glc(b1-6)Glc,0.11
same,glycan array binding signal (z-score),GlcA(b1-3)Gal,-0.466
same,glycan array binding signal (z-score),GlcA(b1-3)GlcNAc,-0.307
same,glycan array binding signal (z-score),GlcA(b1-6)Gal,0.109
same,glycan array binding signal (z-score),[1],0.035
same,glycan array binding signal (z-score),[2],-0.736
same,glycan array binding signal (z-score),[3],0.05
same,glycan array binding signal (z-score),[4],-0.194
same,glycan array binding signal (z-score),GlcNAc(b1-3)Gal,-0.481
same,glycan array binding signal (z-score),[5],-0.415
same,glycan array binding signal (z-score),GlcNAc(b1-3)Gal(b1-4)Glc,-0.266
same,glycan array binding signal (z-score),[6],0.263
same,glycan array binding signal (z-score),[7],-0.114
same,glycan array binding signal (z-score),GlcNAc(b1-3)GalNAc,0.008
same,glycan array binding signal (z-score),GlcNAc(b1-3)Man,0.033
same,glycan array binding signal (z-score),[8],-0.378
same,glycan array binding signal (z-score),[9],-0.299
same,glycan array binding signal (z-score),[10],-0.128
same,glycan array binding signal (z-score),[11],-0.188
same,glycan array binding signal (z-score),GlcNAc(b1-4)GlcNAc,-0.326
same,glycan array binding signal (z-score),[12],0.143
same,glycan array binding signal (z-score),[13],-0.165
same,glycan array binding signal (z-score),[14],-0.624
same,glycan array binding signal (z-score),[15],-0.053
same,glycan array binding signal (z-score),[16],0.236
same,glycan array binding signal (z-score),GlcNAc(b1-6)GalNAc,-0.343
same,glycan array binding signal (z-score),GlcNAc3Prop(b1-4)GlcNAc,-0.504
same,glycan array binding signal (z-score),Kdn(a2-3)Gal(b1-3)GlcNAc,-0.628
same,glycan array binding signal (z-score),Kdn(a2-3)Gal(b1-4)GlcNAc,-0.424
same,glycan array binding signal (z-score),[17],-0.485
same,glycan array binding signal (z-score),[18],-0.159
same,glycan array binding signal (z-score),Man(a1-2)Man(a1-3)Man,-0.169
same,glycan array binding signal (z-score),[19],-0.24
same,glycan array binding signal (z-score),[20],-0.23
same,glycan array binding signal (z-score),[21],0.123
same,glycan array binding signal (z-score),[22],-0.147
same,glycan array binding signal (z-score),[23],0.082
same,glycan array binding signal (z-score),[24],0.014
same,glycan array binding signal (z-score),Man(a1-3)[Man(a1-6)]Man,-0.046
same,glycan array binding signal (z-score),[25],0.125
same,glycan array binding signal (z-score),[26],0.238
same,glycan array binding signal (z-score),[27],0.22
same,glycan array binding signal (z-score),[28],-0.527
same,glycan array binding signal (z-score),Man(a1-6)Man,-0.026
same,glycan array binding signal (z-score),Man(b1-4)GlcNAc,-0.937
same,glycan array binding signal (z-score),Neu5Ac(a2-3)Gal,-0.473
same,glycan array binding signal (z-score),[29],3.93
same,glycan array binding signal (z-score),[30],1.74
same,glycan array binding signal (z-score),[31],0.157
same,glycan array binding signal (z-score),[32],4.82
same,glycan array binding signal (z-score),[33],-0.154
same,glycan array binding signal (z-score),[34],0.151
same,glycan array binding signal (z-score),[35],0.656
same,glycan array binding signal (z-score),[36],0.919
